According to the supplement of paper PMC12217912:
Some of the results follow. The full chains were built here from the parent and the listed change. Values near 0.05 are background.

B1: TEV protease; numbered along this chain (parent)
chain: MGESLFKGPRDYNPISSSICHLTNESDGHTTSLYGIGFGPFIITNKHLFRRNNGTLVVQSLHGVFKVKDTTTLQQHLVDGRDMIIIRMPKDFPPFPQKLKFREPQREERICLVTTNFQTKSMSSMVSDTSCTFPSGDGIFWKHWIQTKDGQCGSPLVSTRDGFIVGIHSASNFTNTNNYFTSVPKNFMELLTNQEAQQWVSGWRLNADSVLWGGHKVFMVKPEEPFQPVKEATQL

Variants of: B1
Test: raw area under fraction-flipped curve 0-4 h after induction (AUC4h, not background-subtracted), DNA-recorder readout of cleavage of the substrate (dimensionless); higher = more cleavage of the substrate by the protease variant
Settings: temperature: 34 °C; time window: 0-4 h after rhamnose induction
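Note: Bxb1 expression induced with 0.2% (w/v) L-rhamnose at OD600 near 0.5, cultures sampled hourly, flipped fraction per protease–substrate barcode pair counted by paired-end Illumina sequencing.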

Variant | area with substrate ENCYFQS | area with substrate ENDYFQS | area with substrate ENEYFQS | area with substrate ENFYFQS | area with substrate ENGYFQS | area with substrate ENHYFQS | area with substrate ENIYFQS | area with substrate ENKYFQS | area with substrate ENNYFQS | area with substrate ENQYFQS | area with substrate ENRYFQS | area with substrate ENSYFQS | area with substrate ENTYFQS | area with substrate ENVYFQS | area with substrate ENWYFQS | area with substrate ENMYFQS | area with substrate ENPYFQS | area with substrate ENYYFQS | area with substrate ENAYFQS
S60H | 0.0546 | 0.0529 | 0.0593 | 0.0327 | 0.0708 | 0.0791 | 0.11 | 0.0563 | 0.063 | 0.0756 | 0.0576 | 0.0625 | 0.0565 | 0.0908 | 0.0411 | – | – | – | –
S169W | 0.0519 | – | 0.0539 | 0.0827 | 0.0544 | – | 0.0469 | – | 0.0671 | – | – | 0.0713 | 0.0635 | – | 0.0575 | – | – | – | –
N13L | 0.0656 | 0.0574 | 0.0445 | 0.0589 | – | 0.0418 | 0.121 | 0.0589 | 0.0701 | 0.0571 | – | 0.0589 | 0.054 | 0.0904 | – | 0.0695 | 0.0653 | 0.0739 | –
K46T | 0.0583 | 0.0458 | 0.05 | 0.0765 | 0.0676 | 0.0491 | – | 0.0581 | 0.0564 | 0.0653 | 0.047 | 0.0584 | 0.0492 | 0.0752 | – | – | – | 0.071 | –
L22I | 0.0685 | 0.062 | 0.0516 | – | 0.0552 | 0.117 | 0.097 | 0.0579 | 0.0462 | 0.0604 | 0.0661 | 0.0378 | 0.0618 | 0.0762 | – | – | 0.0604 | 0.0638 | –
L77Y | 0.0599 | 0.0832 | 0.0476 | 0.0631 | 0.0593 | 0.0587 | 0.0581 | – | 0.0724 | 0.0578 | 0.0406 | 0.0698 | 0.0595 | – | 0.0051 | 0.0398 | – | 0.0608 | –
G54V | – | 0.0526 | 0.0559 | 0.0599 | 0.0552 | 0.0535 | 0.0579 | – | 0.0606 | 0.0516 | 0.055 | 0.0124 | 0.0538 | 0.0541 | 0.0883 | 0.0459 | – | 0.0266 | –
G54Q | 0.0585 | 0.0407 | 0.0542 | 0.0493 | 0.062 | 0.0457 | – | 0.0429 | 0.0664 | 0.0586 | 0.0595 | 0.0628 | 0.0518 | 0.0589 | 0.0559 | – | 0.0629 | 0.0465 | –
N116S | 0.0772 | 0.0596 | – | – | 0.0614 | 0.0621 | 0.105 | 0.0565 | – | 0.0668 | 0.0314 | – | – | 0.0737 | 0.001 | – | 0.052 | 0.0646 | –
D27W | 0.0765 | 0.0515 | 0.07 | 0.0551 | – | – | – | – | – | 0.0532 | 0.068 | 0.0537 | – | 0.076 | 0.0594 | – | 0.0635 | 0.059 | –
S123I | – | 0.0638 | 0.0617 | 0.0552 | – | – | 0.112 | 0.0632 | 0.068 | 0.0402 | 0.0726 | 0.0562 | 0.0576 | 0.0731 | – | 0.108 | 0.0531 | 0.076 | –
K230D | 0.0813 | 0.0608 | 0.0508 | 0.0701 | 0.0494 | 0.0577 | – | 0.0456 | 0.0672 | 0.0594 | 0.0591 | 0.0668 | – | 0.0562 | – | – | – | – | 0.0575
K230C | 0.0258 | 0.0596 | 0.0616 | – | 0.066 | 0.0567 | – | 0.0578 | 0.097 | 0.0606 | 0.0651 | – | – | 0.0682 | – | 0.0744 | 0.0719 | – | –
K230N | 0.0605 | 0.0697 | 0.0485 | 0.0576 | 0.0718 | 0.081 | 0.111 | 0.0626 | 0.0691 | 0.0627 | 0.0549 | – | – | 0.0623 | 0.0636 | 0.0542 | 0.0522 | 0.0626 | 0.0587
I167A | – | 0.0845 | 0.0578 | – | 0.0706 | 0.0663 | 0.0637 | – | 0.0566 | 0.0629 | 0.0494 | – | 0.0655 | 0.0513 | – | 0.0488 | 0.0489 | 0.0649 | –
F65L | 0.0645 | 0.0607 | 0.0774 | 0.0676 | 0.0603 | 0.0459 | – | 0.05 | 0.0692 | 0.058 | 0.0646 | 0.0389 | – | 0.0249 | – | – | – | – | –
S130Y | 0.0589 | 0.0616 | 0.0573 | 0.0562 | 0.0684 | – | 0.106 | – | 0.0624 | 0.0583 | 0.0568 | 0.0614 | 0.0542 | 0.0758 | 0.0444 | 0.0678 | 0.0595 | – | –
L191Y | 0.0619 | 0.0683 | – | – | 0.0609 | – | – | 0.0291 | 0.0576 | 0.0663 | – | 0.0791 | 0.0652 | – | 0.0119 | 0.0641 | – | 0.0456 | –
Q227V | 0.0638 | – | 0.0585 | 0.0782 | 0.124 | 0.0623 | – | 0.0515 | 0.0703 | 0.0799 | 0.0812 | 0.0619 | – | 0.0896 | – | – | 0.052 | – | 0.0728
Q227L | 0.0639 | 0.0577 | 0.0644 | 0.0459 | 0.0534 | – | – | 0.0531 | 0.0728 | 0.0586 | 0.0532 | 0.0673 | – | 0.0767 | 0.0422 | 0.0822 | 0.0533 | 0.0505 | 0.0625
F226N | 0.0732 | 0.0826 | 0.053 | 0.0602 | 0.0643 | 0.132 | 0.0983 | 0.0457 | 0.0583 | 0.059 | 0.0601 | 0.0645 | 0.0636 | 0.0729 | 0.0598 | 0.0775 | 0.0575 | 0.0688 | 0.0652
F226M | 0.0629 | 0.0562 | 0.0583 | 0.0557 | 0.0636 | 0.0715 | – | – | 0.0434 | – | 0.0581 | 0.0587 | 0.11 | 0.006 | 0.0641 | 0.0801 | 0.0443 | – | 0.0574
H76R | 0.0703 | 0.0537 | 0.0516 | 0.0535 | – | – | 0.0691 | 0.0597 | 0.0762 | 0.0696 | – | 0.0688 | 0.0702 | 0.0644 | 0.0459 | 0.0678 | 0.0597 | 0.0694 | –
G202Q | 0.0654 | 0.0592 | 0.0705 | 0.0578 | 0.0683 | 0.0874 | 0.0836 | 0.057 | 0.0018 | 0.0581 | 0.0574 | 0.0744 | 0.0655 | 0.0621 | 0.0559 | 0.0693 | 0.0561 | 0.056 | –
Q194F | 0.0578 | – | 0.0739 | 0.0454 | – | 0.0566 | 0.0978 | 0.0511 | 0.0506 | 0.0819 | – | 0.0616 | – | 0.0808 | 0.0266 | – | – | – | –
